Assay results from the supplement of paper PMC4967469.
IC50 is the fitted dose that halves viability relative to control wells, and lower means more sensitive; a fit beyond the top or the lowest dose is shown as a bound at that dose. AUC sums up the same curve from the lowest dose to the 256-fold higher top dose: 1 means no effect, lower means more sensitive. For some of these results: The top dose, if marked as inferred, was calculated from the reported fits.

What was measured:
Assay in all cases: Viability of human cancer cell lines after 72 h of drug (GDSC screen)
[1] = compound: CCC(=O)N1CCN(c2ccc(-n3c(=O)ccc4cnc5ccc(-c6cnc7ccccc7c6)cc5c43)cc2C(F)(F)F)CC1 [JW-7-52-1]; settings: top dose 1.2 µM; top dose inferred
Experimental: (§1)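 Human cancer cell lines in 384-well plates, medium with 10% serum, drug for 72 h over a 256-fold dose range (nine 2-fold or five 4-fold steps up to the top dose). Adherent lines were fixed and stained with the nucleic acid dye Syto60, suspension lines read with resazurin; signal relative to control wells, capped at 0 and 100%. One two-parameter sigmoid per drug and line, fitted in a mixed model over all curves with the slope shared within a line.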

[2] = compound: CCCC[C@@H](C=O)NC(=O)[C@H](CC(C)C)NC(=O)[C@H](CC(C)C)NC(=O)OCc1ccccc1 [Z-LLNle-CHO]; settings: top dose 2.56 µM; top dose inferred
Experimental: as §1

[3] = compound: CN1CCc2c(c3ccccc3n2Cc2ccc(C(=O)NO)cc2)C1 [Tubastatin A]; settings: top dose 20 µM
Experimental: as §1

[4] = compound: CO[C@H]1C[C@@H]2CC[C@@H](C)[C@@](O)(O2)C(=O)C(=O)N2CCCC[C@H]2C(=O)O[C@H]([C@H](C)C[C@@H]2CC[C@@H](O)[C@H](OC)C2)CC(=O)[C@H](C)/C=C(\C)[C@@H](O)[C@@H](OC)C(=O)[C@H](C)C[C@H](C)/C=C/C=C/C=C/1C [Rapamycin]; settings: top dose 0.1 µM; top dose inferred
Experimental: as §1

[5] = compound: COc1cc2c(Oc3ccc(NC(=O)C4(C(=O)Nc5ccc(F)cc5)CC4)cc3F)ccnc2cc1OCCCN1CCOCC1 [XL-880]; settings: top dose 5.12 µM; top dose inferred
Experimental: as §1

[6] = compound: Oc1ccc2ccccc2c1SSc1c(O)ccc2ccccc12 [IPA-3]; settings: top dose 32 µM; top dose inferred
Experimental: as §1

[7] = compound: O=C(NOCC1CC1)c1ccc(F)c(F)c1Nc1ccc(I)cc1Cl [CI-1040]; settings: top dose 10 µM; top dose inferred
Experimental: as §1

[8] = compound: Cn1nnc2c(C(N)=O)ncn2c1=O [Temozolomide]; settings: top dose 30 µM
Experimental: as §1

Cell Line: KMS-12-BM (myeloma, suspension)
- AUC [1]: 0.701
- IC50 [1]: 246 nM
- AUC [2]: 0.814
- IC50 [2]: 1100 nM
- AUC [3]: 0.818
- IC50 [3]: 8.89 µM
- AUC [4]: 0.922
- IC50 [4]: > 100 nM
- AUC [5]: 0.794
- IC50 [5]: 1920 nM
- AUC [6]: 0.943
- IC50 [6]: > 32 µM
- AUC [7]: 0.881
- IC50 [7]: 7.39 µM

Cell Line: OMC-1 (cervix, adherent)
- AUC [1]: 0.511
- IC50 [1]: 80.3 nM
- AUC [2]: 0.869
- IC50 [2]: 2560 nM
- AUC [3]: 0.983
- IC50 [3]: > 20 µM
- AUC [4]: 0.925
- IC50 [4]: > 100 nM
- AUC [5]: 0.756
- IC50 [5]: 1830 nM
- AUC [8]: 0.987
- IC50 [8]: > 30 µM
- AUC [6]: 0.903
- IC50 [6]: > 32 µM

Cell Line: GCIY (stomach, adherent)
- AUC [1]: 0.239
- IC50 [1]: 11.8 nM
- AUC [2]: 0.8
- IC50 [2]: 1420 nM
- AUC [3]: 0.969
- IC50 [3]: > 20 µM
- AUC [4]: 0.716
- IC50 [4]: 27.9 nM
- AUC [5]: 0.822
- IC50 [5]: 3500 nM
- AUC [6]: 0.885
- IC50 [6]: > 32 µM
- AUC [7]: 0.857
- IC50 [7]: 9.86 µM

Cell Line: NCI-H64 (small cell lung carcinoma, suspension)
- AUC [1]: 0.753
- IC50 [1]: 315 nM
- AUC [2]: 0.815
- IC50 [2]: 977 nM
- AUC [3]: 0.961
- IC50 [3]: > 20 µM
- AUC [4]: 0.988
- IC50 [4]: > 100 nM
- AUC [5]: 0.809
- IC50 [5]: 1880 nM
- AUC [6]: 0.817
- IC50 [6]: 12.4 µM
- AUC [7]: 0.985
- IC50 [7]: > 10 µM

Cell Line: HCC-33 (small cell lung carcinoma, adherent)
- AUC [1]: 0.926
- IC50 [1]: > 1200 nM
- AUC [2]: 0.929
- IC50 [2]: > 2560 nM
- AUC [3]: 0.874
- IC50 [3]: 19.9 µM
- AUC [4]: 0.975
- IC50 [4]: > 100 nM
- AUC [5]: 0.793
- IC50 [5]: 2370 nM
- AUC [6]: 0.742
- IC50 [6]: 9.95 µM

Cell Line: NK-92MI (lymphoid neoplasm, suspension)
- AUC [1]: 0.7
- IC50 [1]: 262 nM
- AUC [2]: 0.727
- IC50 [2]: 668 nM
- AUC [4]: 0.877
- IC50 [4]: 88.1 nM
- AUC [6]: 0.652
- IC50 [6]: 5.09 µM

Cell Line: THP-1 (acute myeloid leukaemia, suspension)
- AUC [1]: 0.917
- IC50 [1]: > 1200 nM
- AUC [2]: 0.931
- IC50 [2]: > 2560 nM
- AUC [4]: 0.986
- IC50 [4]: > 100 nM
- AUC [5]: 0.657
- IC50 [5]: 832 nM
- AUC [6]: 0.99
- IC50 [6]: > 32 µM
- AUC [7]: 0.937
- IC50 [7]: > 10 µM

Cell Line: HEL (acute myeloid leukaemia, semi-adherent)
- AUC [1]: 0.279
- IC50 [1]: 20.2 nM
- AUC [2]: 0.761
- IC50 [2]: 771 nM
- AUC [3]: 0.825
- IC50 [3]: 9.4 µM
- AUC [4]: 0.738
- IC50 [4]: 25.9 nM
- AUC [5]: 0.834
- IC50 [5]: 2580 nM
- AUC [8]: 0.99
- IC50 [8]: > 30 µM
- AUC [6]: 0.602
- IC50 [6]: 3.61 µM

Cell Line: KP-N-YS (neuroblastoma, adherent)
- AUC [1]: 0.799
- IC50 [1]: 673 nM
- AUC [2]: 0.809
- IC50 [2]: 1590 nM
- AUC [3]: 0.889
- IC50 [3]: > 20 µM
- AUC [4]: 0.982
- IC50 [4]: > 100 nM
- AUC [5]: 0.665
- IC50 [5]: 989 nM
- AUC [6]: 0.806
- IC50 [6]: 19.2 µM

Cell Line: TE-441-T (rhabdomyosarcoma, adherent)
- AUC [1]: 0.827
- IC50 [1]: 697 nM
- AUC [2]: 0.954
- IC50 [2]: > 2560 nM
- AUC [4]: 0.953
- IC50 [4]: > 100 nM
- AUC [5]: 0.76
- IC50 [5]: 1740 nM
- AUC [6]: 0.775
- IC50 [6]: 12.1 µM

Cell Line: NCI-H2171 (small cell lung carcinoma, suspension)
- AUC [1]: 0.965
- IC50 [1]: > 1200 nM
- AUC [2]: 0.9
- IC50 [2]: 2520 nM
- AUC [3]: 0.979
- IC50 [3]: > 20 µM
- AUC [4]: 0.958
- IC50 [4]: > 100 nM
- AUC [5]: 0.559
- IC50 [5]: 454 nM
- AUC [6]: 0.954
- IC50 [6]: > 32 µM

Cell Line: NB17 (neuroblastoma, adherent)
- AUC [1]: 0.555
- IC50 [1]: 108 nM
- AUC [2]: 0.765
- IC50 [2]: 1070 nM
- AUC [3]: 0.853
- IC50 [3]: 19.4 µM
- AUC [4]: 0.914
- IC50 [4]: > 100 nM
- AUC [5]: 0.703
- IC50 [5]: 1310 nM
- AUC [8]: 0.981
- IC50 [8]: > 30 µM
- AUC [7]: 0.882
- IC50 [7]: > 10 µM

Cell Line: MZ7-mel (melanoma, adherent)
- AUC [1]: 0.396
- IC50 [1]: 38.6 nM
- AUC [2]: 0.851
- IC50 [2]: 2070 nM
- AUC [3]: 0.868
- IC50 [3]: 19.4 µM
- AUC [4]: 0.917
- IC50 [4]: > 100 nM
- AUC [5]: 0.595
- IC50 [5]: 587 nM
- AUC [8]: 0.982
- IC50 [8]: > 30 µM
- AUC [6]: 0.972
- IC50 [6]: > 32 µM

Cell Line: SU-DHL-1 (anaplastic large cell lymphoma, suspension)
- AUC [1]: 0.939
- IC50 [1]: 1060 nM
- AUC [2]: 0.842
- IC50 [2]: 1110 nM
- AUC [3]: 0.997
- IC50 [3]: > 20 µM
- AUC [4]: 0.99
- IC50 [4]: > 100 nM
- AUC [5]: 0.689
- IC50 [5]: 915 nM
- AUC [6]: 0.997
- IC50 [6]: > 32 µM

Cell Line: CAL-148 (breast, suspension)
- AUC [1]: 0.581
- IC50 [1]: 122 nM
- AUC [2]: 0.957
- IC50 [2]: > 2560 nM
- AUC [3]: 0.94
- IC50 [3]: > 20 µM
- AUC [4]: 0.945
- IC50 [4]: > 100 nM
- AUC [5]: 0.768
- IC50 [5]: 1770 nM
- AUC [6]: 0.983
- IC50 [6]: > 32 µM

Cell Line: MY-M12 (leukaemia, suspension)
- AUC [1]: 0.173
- IC50 [1]: 6.52 nM
- AUC [2]: 0.645
- IC50 [2]: 426 nM
- AUC [3]: 0.672
- IC50 [3]: 4.03 µM
- AUC [4]: 0.201
- IC50 [4]: 0.709 nM
- AUC [5]: 0.384
- IC50 [5]: 147 nM
- AUC [6]: 0.741
- IC50 [6]: 10.9 µM
- AUC [7]: 0.773
- IC50 [7]: 4.41 µM

Cell Line: GA-10 (Burkitt lymphoma, suspension)
- AUC [1]: 0.199
- IC50 [1]: 11.7 nM
- AUC [2]: 0.787
- IC50 [2]: 928 nM
- AUC [4]: 0.036
- IC50 [4]: < 0.391 nM
- AUC [8]: 0.99
- IC50 [8]: > 30 µM
- AUC [7]: 0.872
- IC50 [7]: 7.05 µM

Cell Line: SCC-3 (B-cell lymphoma, suspension)
- AUC [1]: 0.603
- IC50 [1]: 133 nM
- AUC [2]: 0.763
- IC50 [2]: 699 nM
- AUC [3]: 0.926
- IC50 [3]: 16 µM
- AUC [4]: 0.957
- IC50 [4]: > 100 nM
- AUC [5]: 0.62
- IC50 [5]: 625 nM
- AUC [6]: 0.993
- IC50 [6]: > 32 µM

Cell Line: JAR (urogenital system, adherent)
- AUC [1]: 0.576
- IC50 [1]: 121 nM
- AUC [2]: 0.884
- IC50 [2]: > 2560 nM
- AUC [3]: 0.988
- IC50 [3]: > 20 µM
- AUC [4]: 0.925
- IC50 [4]: > 100 nM
- AUC [5]: 0.829
- IC50 [5]: 3100 nM
- AUC [8]: 0.956
- IC50 [8]: > 30 µM
- AUC [6]: 0.987
- IC50 [6]: > 32 µM
